Results taken from PubChem BioAssay AID624172 (National Center for Advancing Translational Sciences (NCATS), 2012).
About 25 (0.007%) of roughly 380,000 compounds were called active. Inconclusive means that the source gave no clear call. Such entries were picked first, then a sample of the others. Calls follow the shape of the dose curve; as a rule, active = well fitted activation curve with a large enough effect; inconclusive = small, poorly fitted or top-dose-only effect; inactive = no such curve, though single readings can be large or run the other way. Potencies of inconclusive entries are left out as doubtful fits.

target: Glucagon-like peptide 1 receptor (Homo sapiens) (UniProt P43220); test: qHTS of GLP-1 Receptor Agonists; settings: HEK293 GLP-1R CRE-luciferase, luminescence, 4-6 h, cells express a hypersensitive GLP-1R form; activation: at 45.6 µM (top of the series) unless noted; as to activation: % of control where 0% means no effect
Potency is read from the fitted curve at half-maximal effect; tags tell the direction and shape of the fitted curve.

Sequence of UniProt P43220 (P43220 whole entry, looked up): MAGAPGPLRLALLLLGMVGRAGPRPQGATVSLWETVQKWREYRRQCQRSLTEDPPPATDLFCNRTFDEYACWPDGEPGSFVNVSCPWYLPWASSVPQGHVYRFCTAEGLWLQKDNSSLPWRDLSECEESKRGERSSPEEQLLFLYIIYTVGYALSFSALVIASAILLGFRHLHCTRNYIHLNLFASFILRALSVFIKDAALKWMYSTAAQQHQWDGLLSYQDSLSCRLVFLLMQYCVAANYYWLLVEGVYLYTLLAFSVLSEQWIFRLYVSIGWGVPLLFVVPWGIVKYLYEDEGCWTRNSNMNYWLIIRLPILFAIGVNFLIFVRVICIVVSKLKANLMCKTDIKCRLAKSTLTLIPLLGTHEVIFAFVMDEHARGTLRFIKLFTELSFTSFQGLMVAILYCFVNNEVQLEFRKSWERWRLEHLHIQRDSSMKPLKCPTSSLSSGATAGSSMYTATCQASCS

Structure (SMILES) | Potency | activation
COc1ccc(Cc2noc(-c3ccc(OC)c(OC)c3)n2)cc1OC | inconclusive [activator, partial curve] | 
COc1cc(/C=N/NC(=O)c2cc(-c3ccccc3Cl)nc3ccccc23)cc(OC)c1O | inconclusive [activator, partial curve] | 
COc1ccc(CN2C(=O)c3cccnc3C2Nc2cc(Cl)ccc2OC)cc1 (configuration not stated) | inconclusive [activator, full curve, poor fit] | 
CCNc1ccc(C(=O)OCC(=O)c2cc(C)n(Cc3ccc4c(c3)OCO4)c2C)cc1[N+](=O)[O-] | inconclusive [activator, single point] | 
Cn1ncc2c(O/N=C(\N)c3ccc(C(C)(C)C)cc3)ncnc21 | inactive | 
COc1ccccc1CNC(=O)c1ccc(-c2ccccc2C(F)(F)F)o1 | inconclusive [activator, partial curve, poor fit] | 
COc1ccccc1CNC(=O)COc1cc2c(c3oc(=O)cc(C)c13)CCC(C)(C)O2 | inconclusive [activator, partial curve, poor fit] | 
COc1ccccc1NS(=O)(=O)c1cccc(C(=O)NNC(=O)C(C)NC(=O)c2ccco2)c1 (configuration not stated) | inactive | 
O=c1[nH]c2ccc(Br)cc2o1 | inactive | 
Cc1ccc(CNCCCSc2ncccn2)cc1 | inconclusive [activator, partial curve, poor fit] | 
CCc1noc(C)c1C(=O)OCC(=O)c1ccc(OC)c(OC)c1 | inconclusive [activator, single point] | 
COC(=O)C1=C(C)NC(COC(N)=O)=C(C(=O)OC(C)C)C1c1cccc(Cl)c1Cl (configuration not stated) | inactive | 
CN1/C(=C\C=C2/SC(=S)NC2=O)C(C)(C)c2ccccc21 | inactive | 
COc1ccc(OC2CCN(S(=O)(=O)c3ccc(OC)cc3)CC2)cc1 | inactive | 
CCn1c2ccc(F)cc2c2nnc(SCCN3CCOCC3)nc21 | inconclusive [activator, partial curve] | 
COCCCNC(=O)/C(C#N)=C/c1c(N2CCN(C)CC2)nc2ccccn2c1=O | inactive | 
O=C(NC1CC1)C1CCN(c2nc3ccccc3s2)CC1 | inactive | 
Nc1c(C(=O)c2cccs2)oc2ccccc12 | inconclusive [activator, single point] | 
O=C(N/N=C/c1cccc(F)c1)NC1CCCCC1 | inconclusive [activator, single point] | 
CC1(C)NC(=O)N(CCCCOc2ccc(Br)cc2Cl)C1=O | inconclusive [activator, single point] | 
CN(C)C=Nc1c(I)cc(I)c(CCC(=O)O)c1I |  | inconclusive: 41.6% [activator]
C[C@@H]1[C@H](O)C[C@@]23COC(=O)C2=CCC[C@@H]3[C@@]1(C)CC/C(=C/CO)CO | inactive | 
Cc1cccc(/C=N/Nc2ccc3ccccc3n2)c1 | inactive | 
COC(=O)CCSCC(=O)N1N=C(c2ccc(OC)cc2)CC1c1cccc(OC)c1OC (configuration not stated) | inconclusive [activator, partial curve] | 

Structure (SMILES) | Potency | activation
O=C(c1ccccc1)n1ccc(-c2cnc(-c3ccccc3)s2)n1 | inactive | 
O=C(Nc1ccc(NC(=O)C2CC2)cc1)c1ccco1 | inactive | 
CC1CC(C)CN(C(=O)c2cc3cc(Br)cc(Br)c3o2)C1 (configuration not stated) | inconclusive [activator, single point] | 
COC(=O)c1sccc1S(=O)(=O)N1CCN(c2ccccc2)CC1 | inactive | 
COc1ccccc1-c1csc(Nc2ccc(Oc3ccccc3)cc2)n1 | inconclusive [activator, single point] | 
CCOc1ccc(C2C(C(=O)OC)=C(C)NC3=C2C(=O)c2ccccc23)cc1OC (configuration not stated) | inconclusive [activator, partial curve] | 
O=C(NC1=NN(c2ccccc2)CC1)Nc1ccccc1F | inactive | 
Cc1cccc(CC(C)NC(=O)c2oc3c(F)cccc3c2C)n1 (configuration not stated) | inconclusive [activator, single point] | 
NC(=O)c1cccc2c3c([nH]c12)CCCC3 | inconclusive [activator, single point] | 
CC(CN1CCN(C)CC1)OC(=O)c1ccc(Cl)cc1Cl (configuration not stated) | inconclusive [activator, single point] | 
COC(=O)/C=C1/S/C(=N/NC(=O)c2ccccc2)NC1=O | inactive | 
COc1cc2c(cc1OC)-c1cc(OCCN3CCOCC3)nc(=O)n1CC2 | inconclusive [activator, partial curve, poor fit] | 
N#Cc1ccccc1OCC(=O)N1N=C(c2cccs2)CC1c1ccco1 (configuration not stated) | inconclusive [activator, partial curve, poor fit] | 
COc1ccccc1NC(=O)CSc1nc2ccccc2n1C(C)=O | inconclusive [activator, single point] | 
O=C(C1CCCN(Cc2ccccc2)C1)N1CCCCC1 (configuration not stated) | inconclusive [activator, single point] | 
C(/C=C/c1ccccc1)=N/N1CCN(c2ccccc2)CC1 | inactive | 
Cc1cccc(NC(=S)N(CCCN2CCOCC2)Cc2ccccn2)c1 | inactive | 
Cc1ccc(NC(=O)CN(C)CC(=O)Nc2sc3c(c2C(N)=O)CCC3)cc1 | inactive | 
O=C(NNC(=O)c1ccccc1OCc1ccccc1Cl)c1csc(N2CCOCC2)n1 | inconclusive [activator, partial curve, poor fit] | 
O=C1/C(=C\c2ccco2)NC(=S)N1c1ccccc1 | inactive | 
O=[N+]([O-])c1ccc(N/N=C2\CC3CC=CC23)c([N+](=O)[O-])c1 (configuration not stated) | inactive | 
CN(CCCC(=O)O)c1ccc(N=Nc2ccc([N+](=O)[O-])cc2)cc1 | inactive | 
COc1cc2oc3ccccc3c(=O)c2cc1OC | inconclusive [activator, partial curve, poor fit] | 
C=CCn1c2ccccc2c2nnc(SCN3C(=O)c4ccccc4C3=O)nc21 | inconclusive [activator, partial curve, poor fit] | 

Structure (SMILES) | Potency | activation
CCc1ccc(CCC(=O)Nc2ccc(C)c(C)c2)o1 | inconclusive [activator, single point] | 
Cc1ccc2c(c1)COc1c3ccc(C(=O)N[C@@H](C)CO)cc3nn1-2 | inactive | 
COC(=O)C1=C(C)NC2=C(C(=O)CCC2)C1c1ccc(-c2ccsc2C(=O)OC)o1 (configuration not stated) | inconclusive [activator, single point] | 
Cc1nc(N2CCOCC2)c2cc(-c3ccccc3)sc2n1 | inconclusive [activator, single point] | 
COc1ccc(C2NC(c3ccc(OC)c(OC)c3OC)C(C)C(=O)C2C)c(OC)c1OC (configuration not stated) | inactive | 
O=C(c1ccccc1-c1nc(-c2ccc(Cl)cc2)no1)N1CCCC1 | inconclusive [activator, full curve, poor fit] | 
CC1(C)Oc2ccc3ccc(=O)oc3c2/C(=C/Nc2cccc(O)c2)C1=O | inconclusive [activator, single point] | 
CS(=O)(=O)N1Cc2ccccc2CC1C(=O)Nc1ccccc1C(N)=O (configuration not stated) | inconclusive [activator, single point] | 
CCCCCc1ccc(C2=NNC(=O)CC2)cc1 | inconclusive [activator, single point] | 
C=CCN=C(NC#N)SCc1ccccc1Cl | inconclusive [activator, partial curve, poor fit] | 
OC(CN1CCN(c2ccccc2Cl)CC1)c1ccccc1 (configuration not stated) | inactive | 
CCOC(=O)c1c(NC(=O)COC)sc(C)c1C | inconclusive [activator, full curve, poor fit] | 
CCCC(c1nnnn1Cc1cccs1)N1CCN(C2CCCC2)CC1 (configuration not stated) | inactive | 
COCCCC/C(=N\OCCN)c1ccc(C(F)(F)F)cc1 | inconclusive [activator, full curve, poor fit] | 
COc1ccc2c(CN(C)Cc3ccccc3)cc(=O)oc2c1 | inconclusive [activator, partial curve, poor fit] | 
COc1ccc(/C=N/Nc2snc(SC)c2C#N)cc1OC | inconclusive [activator, full curve, poor fit] | 
COc1ccc2cc(C(=O)N3CCCCCC3)sc(=O)c2c1OC | inconclusive [activator, partial curve, poor fit] | 
CCOC(=O)C1CCN(c2nc3c(C)cccn3c(=O)c2/C=C(\C#N)S(=O)(=O)c2ccccc2)CC1 | inconclusive [activator, partial curve, poor fit] | 
Cc1nc2sc(C(=O)c3ccccc3)c(N)c2c2c1CCCC2 | inconclusive [activator, single point] | 
CCCc1nc(SCC(=O)c2ccc(OC)cc2)c2ccccc2n1 | inconclusive [activator, partial curve, poor fit] | 
COc1ccc(Cc2cnc(N)s2)cc1 | inconclusive [activator, partial curve, poor fit] | 
CCN(CC)CCNC(=O)c1ccc(NS(C)(=O)=O)cc1 | inactive | 
COc1ccc(-c2csc(C(C)(O)c3ccc(F)c(F)c3)n2)cc1OC (configuration not stated) | inconclusive [activator, partial curve, poor fit] | 
O=C(NCc1ccco1)C(Cc1ccccc1)NS(=O)(=O)c1cccc2nsnc12 (configuration not stated) | inactive | 
